Measurements as given in PMC12820563.
The list shows a part of the results. The list includes weakly bound sequences.

biological target: T1, MBP-FoxP3dN (UniProt Q99JB6); assay: PD-seq (MBP pull-down with sequencing); conditions: 20 mM Tris-HCl pH 7.5, 100 mM NaCl, 1.5 mM MgCl2, 0.4 uM protein, 0.1 uM dsDNA library, 30 min, room temperature, amylose pull-down; high values mean tight binding; double strand, one strand shown
T1 sequence: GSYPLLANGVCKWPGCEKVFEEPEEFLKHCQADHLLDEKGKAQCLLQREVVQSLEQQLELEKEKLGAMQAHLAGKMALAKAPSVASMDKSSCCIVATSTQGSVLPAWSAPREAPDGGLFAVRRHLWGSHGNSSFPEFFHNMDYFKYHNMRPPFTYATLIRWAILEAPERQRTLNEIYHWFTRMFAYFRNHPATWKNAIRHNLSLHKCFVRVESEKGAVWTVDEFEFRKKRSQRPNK

| Sequence | binding signal (RPM ratio (pull-down/input)) |
| --- | --- |
| GATGATTGTTCTCCCAGCTGATGAATTAGTTATCTCGAGTAAACAAATTTTCCTAATCTTTCTGTTCAAGCGCCATCTAC | 3.59 |
| GATGATTGTTCTCCCAGCTGATGAATTGATTGTGTCGAGTAAACAAATTTTCCTAATCTTTCTGTTCAAGCGCCATCTAC | 3.72 |
| GATGATTGTTCTCCCAGCTGATGAATTGAACTAATCGAGTAAACAAATTTTCCTAATCTTTCTGTTCAAGCGCCATCTAC | 0.282 |
| GATGATTGTTCTCCCAGCTGATGAATTGAGAAAATCGAGTAAACAAATTTTCCTAATCTTTCTGTTCAAGCGCCATCTAC | 0.138 |
| GATGATTGTTCTCCCAGCTGATGAATTCCTGTGGTCGAGTAAACAAATTTTCCTAATCTTTCTGTTCAAGCGCCATCTAC | 0.303 |
| GATGATTGTTCTCCCAGCTGATGAATTCATTAGGTCGAGTAAACAAATTTTCCTAATCTTTCTGTTCAAGCGCCATCTAC | 0.554 |
| GATGATTGTTCTCCCAGCTGATGAATTATGACACTCGAGTAAACAAATTTTCCTAATCTTTCTGTTCAAGCGCCATCTAC | 2.61 |
| GATGATTGTTCTCCCAGCTGATGAATTCTATTCGTCGAGTAAACAAATTTTCCTAATCTTTCTGTTCAAGCGCCATCTAC | 0.615 |
| GATGATTGTTCTCCCAGCTGATGAATTTAGACGGTCGAGTAAACAAATTTTCCTAATCTTTCTGTTCAAGCGCCATCTAC | 0.295 |
| GATGATTGTTCTCCCAGCTGATGAATTCGGCCGTTCGAGTAAACAAATTTTCCTAATCTTTCTGTTCAAGCGCCATCTAC | 0.768 |
| GATGATTGTTCTCCCAGCTGATGAATTCGGAGCGTCGAGTAAACAAATTTTCCTAATCTTTCTGTTCAAGCGCCATCTAC | 0.401 |
| GATGATTGTTCTCCCAGCTGATGAATTTGACAGTTCGAGTAAACAAATTTTCCTAATCTTTCTGTTCAAGCGCCATCTAC | 0.622 |
| GATGATTGTTCTCCCAGCTGATGAATTGCAGCAATCGAGTAAACAAATTTTCCTAATCTTTCTGTTCAAGCGCCATCTAC | 2.72 |
| GATGATTGTTCTCCCAGCTGATGAATTCCTCGGTTCGAGTAAACAAATTTTCCTAATCTTTCTGTTCAAGCGCCATCTAC | 0.27 |
| GATGATTGTTCTCCCAGCTGATGAATTCCACTAGTCGAGTAAACAAATTTTCCTAATCTTTCTGTTCAAGCGCCATCTAC | 0.307 |
| GATGATTGTTCTCCCAGCTGATGAATTTCACCCGTCGAGTAAACAAATTTTCCTAATCTTTCTGTTCAAGCGCCATCTAC | 0.289 |

| Sequence | binding signal (RPM ratio (pull-down/input)) |
| --- | --- |
| GATGATTGTTCTCCCAGCTGATGAATTATCATACTCGAGTAAACAAATTTTCCTAATCTTTCTGTTCAAGCGCCATCTAC | 0.447 |
| GATGATTGTTCTCCCAGCTGATGAATTGGATTTGTCGAGTAAACAAATTTTCCTAATCTTTCTGTTCAAGCGCCATCTAC | 1.72 |
| GATGATTGTTCTCCCAGCTGATGAATTATAATCTTCGAGTAAACAAATTTTCCTAATCTTTCTGTTCAAGCGCCATCTAC | 0.402 |
| GATGATTGTTCTCCCAGCTGATGAATTCCGACGCTCGAGTAAACAAATTTTCCTAATCTTTCTGTTCAAGCGCCATCTAC | 0.455 |
| GATGATTGTTCTCCCAGCTGATGAATTGAGCGAGTCGAGTAAACAAATTTTCCTAATCTTTCTGTTCAAGCGCCATCTAC | 0.522 |
| GATGATTGTTCTCCCAGCTGATGAATTAGCAGCTTCGAGTAAACAAATTTTCCTAATCTTTCTGTTCAAGCGCCATCTAC | 0.529 |
| GATGATTGTTCTCCCAGCTGATGAATTGGCCACTTCGAGTAAACAAATTTTCCTAATCTTTCTGTTCAAGCGCCATCTAC | 0.95 |
| GATGATTGTTCTCCCAGCTGATGAATTGAACTCTTCGAGTAAACAAATTTTCCTAATCTTTCTGTTCAAGCGCCATCTAC | 0.264 |
| GATGATTGTTCTCCCAGCTGATGAATTGAAGGATTCGAGTAAACAAATTTTCCTAATCTTTCTGTTCAAGCGCCATCTAC | 0.266 |
| GATGATTGTTCTCCCAGCTGATGAATTAAAGCGATCGAGTAAACAAATTTTCCTAATCTTTCTGTTCAAGCGCCATCTAC | 0.663 |
| GATGATTGTTCTCCCAGCTGATGAATTTGTGGGATCGAGTAAACAAATTTTCCTAATCTTTCTGTTCAAGCGCCATCTAC | 1.41 |
| GATGATTGTTCTCCCAGCTGATGAATTTAAATTCTCGAGTAAACAAATTTTCCTAATCTTTCTGTTCAAGCGCCATCTAC | 0.45 |
| GATGATTGTTCTCCCAGCTGATGAATTGGTCTCCTCGAGTAAACAAATTTTCCTAATCTTTCTGTTCAAGCGCCATCTAC | 0.361 |
| GATGATTGTTCTCCCAGCTGATGAATTACATCTCTCGAGTAAACAAATTTTCCTAATCTTTCTGTTCAAGCGCCATCTAC | 0.727 |
| GATGATTGTTCTCCCAGCTGATGAATTTCGTTCTTCGAGTAAACAAATTTTCCTAATCTTTCTGTTCAAGCGCCATCTAC | 0.565 |
